In assay [1] the target is T1, Rubicon-GFP (UniProt Q92622).
T1 sequence: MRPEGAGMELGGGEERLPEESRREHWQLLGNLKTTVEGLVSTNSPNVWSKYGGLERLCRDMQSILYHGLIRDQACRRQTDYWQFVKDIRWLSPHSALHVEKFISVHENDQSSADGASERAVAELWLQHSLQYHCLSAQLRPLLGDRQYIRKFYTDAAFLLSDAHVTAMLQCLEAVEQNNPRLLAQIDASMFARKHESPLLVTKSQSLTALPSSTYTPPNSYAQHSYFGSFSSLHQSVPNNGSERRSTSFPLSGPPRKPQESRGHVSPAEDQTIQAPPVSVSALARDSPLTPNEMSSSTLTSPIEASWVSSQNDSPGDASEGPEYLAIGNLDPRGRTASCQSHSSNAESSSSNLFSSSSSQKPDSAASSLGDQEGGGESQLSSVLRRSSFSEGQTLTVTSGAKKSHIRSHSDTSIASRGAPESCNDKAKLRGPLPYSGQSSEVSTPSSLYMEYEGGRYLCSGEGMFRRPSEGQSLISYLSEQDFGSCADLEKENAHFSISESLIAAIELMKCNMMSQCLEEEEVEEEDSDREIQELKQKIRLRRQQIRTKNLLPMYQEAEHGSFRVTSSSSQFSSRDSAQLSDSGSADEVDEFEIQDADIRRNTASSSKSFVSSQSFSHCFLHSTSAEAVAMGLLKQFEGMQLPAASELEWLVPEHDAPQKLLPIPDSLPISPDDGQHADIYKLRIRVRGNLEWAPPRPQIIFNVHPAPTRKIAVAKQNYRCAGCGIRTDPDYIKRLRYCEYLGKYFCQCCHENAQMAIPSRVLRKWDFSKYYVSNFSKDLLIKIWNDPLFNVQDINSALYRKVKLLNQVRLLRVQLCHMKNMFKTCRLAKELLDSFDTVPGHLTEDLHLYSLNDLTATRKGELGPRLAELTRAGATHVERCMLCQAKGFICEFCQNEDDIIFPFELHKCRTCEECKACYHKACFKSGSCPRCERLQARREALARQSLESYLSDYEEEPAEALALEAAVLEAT
The assay can be described thus: co-IP; GFP co-IP from HUVEC stably co-transduced with Rab5 DN-mCherry and ZFYVE21-GFP or Rubicon-GFP, treated with MG132.

By UniProt entry, the sequences of proteins in these tests, tags left out.
UniProt Q9ULZ3: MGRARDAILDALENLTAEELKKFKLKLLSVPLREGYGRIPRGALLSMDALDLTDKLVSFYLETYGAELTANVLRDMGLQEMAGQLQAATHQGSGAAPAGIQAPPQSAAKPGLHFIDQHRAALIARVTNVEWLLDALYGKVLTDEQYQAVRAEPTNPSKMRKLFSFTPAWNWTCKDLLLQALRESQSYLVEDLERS
UniProt Q9BQ24: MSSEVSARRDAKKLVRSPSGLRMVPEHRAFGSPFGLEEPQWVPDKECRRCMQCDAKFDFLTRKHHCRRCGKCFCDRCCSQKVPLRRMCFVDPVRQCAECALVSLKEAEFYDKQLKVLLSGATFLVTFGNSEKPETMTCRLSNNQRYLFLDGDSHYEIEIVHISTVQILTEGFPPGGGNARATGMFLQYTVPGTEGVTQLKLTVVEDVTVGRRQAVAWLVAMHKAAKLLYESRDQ

Assay [2] concerns the target T2, Rubicon-GST (human) (UniProt Q92622).
T2 sequence: T1 sequence
The assay can be described thus: far-Western, overlay or dot blot; ZFYVE21-GFP (1 μg) as probe on Rubicon-GST, RNF34-His or a 1:1 mixture loaded at 1 μg per lane, 4 °C overnight, non-denaturing conditions; GFP probe as control; both purified.

Assay [3] has as its target T2, Rubicon-GST (human). Put plainly: ELISA; plate-bound bait protein (Nunc MaxiSorp, Na2CO3 pH 9.6, 4 °C overnight), soluble prey at varying concentrations in 5% BSA PBS-T, 4 °C overnight; detected with antibody against the prey, absorbance at 450 nm; both purified. (In an ELISA, binding on a coated surface is turned into a signal by an enzyme label.)
Assay [4] concerns the target T2, Rubicon-GST (human). The assay can be described thus: ELISA; ELISAs of ZRR complex proteins (ZFYVE21, Rubicon, RNF34) with NLRP3 and ASC, reciprocal, at the concentrations tested (Supplementary Fig 5h; legend not shown); both purified.
The target in assay [5] is ASC (protein used in ELISAs) (UniProt Q9ULZ3). The assay is described as above.
The target in assay [6] is ZFYVE21-GFP (UniProt Q9BQ24). Put plainly: ELISA; plate-bound bait protein (Nunc MaxiSorp, Na2CO3 pH 9.6, 4 °C overnight), soluble prey at varying concentrations in 5% BSA PBS-T, 4 °C overnight; detected with antibody against the prey, absorbance at 450 nm; both purified.
The target in assay [7] is ZFYVE21-GFP (UniProt Q9BQ24). The assay can be described thus: pull-down; ZFYVE21-GFP on agarose beads; Rubicon-GST (1 μg), RNF34-His (1 μg) or a 1:1 mixture pre-incubated 4 h at room temperature added, overnight at 4 °C, TBS with 3% Tween-20; eluted with 0.1 M glycine pH 3; Western blot under non-denaturing conditions; both purified. A general note: In western blotting, separated proteins are transferred to a membrane and probed.

For assay [8], the target named is T1, Rubicon-GFP. The assay can be described thus: co-IP; GFP co-IP from HUVEC stably transduced with Rubicon-GFP and transiently transfected with increasing concentrations of RNF34-His plasmid; Western blot.
The target in assay [9] is T2, Rubicon-GST (human). Put plainly: co-incubation, SDS-PAGE band + LC-MS/MS of the excised band; Rubicon-GST (1 μg) and RNF34-His (1 μg) co-incubated 1:1 in 50 μL (1 h at room temperature or overnight at 4 °C by the legend; room temperature overnight by the methods), resolved by SDS-PAGE; both purified.
The target of assay [10] is T3, Flightless I (human (endogenous in HUVEC)) (UniProt Q13045).
T3 sequence: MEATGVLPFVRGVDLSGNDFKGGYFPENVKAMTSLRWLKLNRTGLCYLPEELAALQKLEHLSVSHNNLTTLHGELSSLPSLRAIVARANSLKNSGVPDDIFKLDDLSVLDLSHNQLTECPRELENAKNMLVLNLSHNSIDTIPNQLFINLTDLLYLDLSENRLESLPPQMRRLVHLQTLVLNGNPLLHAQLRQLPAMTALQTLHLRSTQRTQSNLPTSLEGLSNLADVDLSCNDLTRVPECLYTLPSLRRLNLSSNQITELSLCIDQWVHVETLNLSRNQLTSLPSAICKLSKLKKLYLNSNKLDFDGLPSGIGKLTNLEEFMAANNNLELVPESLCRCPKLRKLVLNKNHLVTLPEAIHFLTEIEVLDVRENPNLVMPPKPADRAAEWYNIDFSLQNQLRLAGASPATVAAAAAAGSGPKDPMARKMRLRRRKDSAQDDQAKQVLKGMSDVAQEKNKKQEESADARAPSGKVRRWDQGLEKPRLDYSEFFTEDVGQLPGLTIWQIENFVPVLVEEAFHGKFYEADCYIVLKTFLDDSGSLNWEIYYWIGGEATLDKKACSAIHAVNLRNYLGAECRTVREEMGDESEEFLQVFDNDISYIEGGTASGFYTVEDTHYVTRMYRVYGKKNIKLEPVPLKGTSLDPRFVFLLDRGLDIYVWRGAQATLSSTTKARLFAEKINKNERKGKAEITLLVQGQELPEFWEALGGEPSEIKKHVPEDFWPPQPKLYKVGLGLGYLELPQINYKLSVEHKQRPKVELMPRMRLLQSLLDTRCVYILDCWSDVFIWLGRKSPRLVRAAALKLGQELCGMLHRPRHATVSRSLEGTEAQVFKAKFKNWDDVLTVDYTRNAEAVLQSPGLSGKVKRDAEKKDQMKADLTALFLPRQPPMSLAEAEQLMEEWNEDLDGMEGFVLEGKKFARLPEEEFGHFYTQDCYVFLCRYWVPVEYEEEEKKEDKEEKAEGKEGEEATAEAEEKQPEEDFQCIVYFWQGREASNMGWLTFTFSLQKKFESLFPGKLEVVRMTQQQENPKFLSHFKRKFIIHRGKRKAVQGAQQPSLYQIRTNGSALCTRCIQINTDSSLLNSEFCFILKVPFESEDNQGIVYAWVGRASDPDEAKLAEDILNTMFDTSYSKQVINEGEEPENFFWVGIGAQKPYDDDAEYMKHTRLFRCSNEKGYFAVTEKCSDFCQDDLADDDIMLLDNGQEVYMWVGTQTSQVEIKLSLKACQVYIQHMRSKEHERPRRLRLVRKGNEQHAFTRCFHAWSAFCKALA
Put plainly: co-IP; anti-FliI pulldown from lysates of HUVEC, basal and PRA for the indicated times; RIPA buffer without SDS, protein A/G agarose.

Assay [11] concerns the target T4, Rubicon (human (endogenous in HUVEC)) (UniProt Q92622).
T4 sequence: T1 sequence
Put plainly: proximity ligation; human coronary artery xenografts in SCID/beige mice, PRA for 24 h; Rubicon and RNF34 in the intima (n = 3 per group). On the technique in general: In xenograft studies the graft and the host belong to different species.

No constants are given. Whether binding was seen depends on the method and setting. For some assays here: Binding seen in cells or lysates may run through a third protein. Some binding calls cover weakened binding; strength is not graded here. For some assays here: Where a sequence is shown, tags or fusion partners need not be part of it.

Take ZFYVE21 (from UniProt Q9BQ24 1-234): the binding entry with Rubicon-GFP [1] was “binds”.

Take “ZFYVE21-GFP protein (from UniProt Q9BQ24 1-234)”: the binding entry with Rubicon-GST (human) [2] and with Rubicon-GST (human) [3] was “binds” in each case.

“ASC (protein used in ELISAs) (from UniProt Q9ULZ3 1-195)”: in the assay with Rubicon-GST (human) [4], the binding entry is given as “binds”.

B1: Rubicon-GST (protein, UniProt Q92622 1-972)
chain: T1 sequence
For the molecule B1, the binding result (in [5]; with ZFYVE21-GFP [6]; with ZFYVE21-GFP [7]) was “binds” in each case.

B2: RNF34-His (protein, UniProt Q969K3 1-372)
chain: MKAGATSMWASCCGLLNEVMGTGAVRGQQSAFAGATGPFRFTPNPEFSTYPPAATEGPNIVCKACGLSFSVFRKKHVCCDCKKDFCSVCSVLQENLRRCSTCHLLQETAFQRPQLMRLKVKDLRQYLILRNIPIDTCREKEDLVDLVLCHHGLGSEDDMDTSSLNSSRSQTSSFFTRSFFSNYTAPSATMSSFQGELMDGDQTSRSGVPAQVQSEITSANTEDDDDDDDEDDDDEEENAEDRNPGLSKERVRASLSDLSSLDDVEGMSVRQLKEILARNFVNYSGCCEKWELVEKVNRLYKENEENQKSYGERLQLQDEEDDSLCRICMDAVIDCVLLECGHMVTCTKCGKRMSECPICRQYVVRAVHVFKS
Regarding B2, the binding result with Rubicon-GFP [8] and with Rubicon-GST (human) [9] was “binds” each time.

B3: RNF34 (protein, UniProt Q969K3 1-372)
chain: B2 chain
B3: the binding result in [10] and in assay [11] was “binds” in each case.

These data come from article PMC10209169.
